# Measured values reported in the supplement of paper PMC3334620.
# In all, about 33,000 sequences were measured (“E-score (-0.5 to 0.5)”: median about -0.036, highest 2% from about 0.37 on). This is one part of the list.
# Molecular target: T1, Yer064c (UniProt P40041)
# T1 sequence: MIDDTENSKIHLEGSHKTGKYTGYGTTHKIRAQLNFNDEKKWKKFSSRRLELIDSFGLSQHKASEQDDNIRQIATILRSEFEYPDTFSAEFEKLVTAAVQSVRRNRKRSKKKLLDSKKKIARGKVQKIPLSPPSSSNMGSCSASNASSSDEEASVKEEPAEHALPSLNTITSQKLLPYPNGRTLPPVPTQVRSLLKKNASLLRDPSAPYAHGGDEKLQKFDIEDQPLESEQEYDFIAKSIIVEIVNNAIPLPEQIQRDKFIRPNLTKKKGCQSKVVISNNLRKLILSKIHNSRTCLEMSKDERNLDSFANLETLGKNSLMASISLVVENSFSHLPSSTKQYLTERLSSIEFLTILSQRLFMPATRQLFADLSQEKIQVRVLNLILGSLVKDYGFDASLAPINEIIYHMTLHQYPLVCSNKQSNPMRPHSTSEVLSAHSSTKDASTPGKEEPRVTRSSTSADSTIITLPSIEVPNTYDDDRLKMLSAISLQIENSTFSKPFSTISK
# Assay: PBM E-score (8-mer binding enrichment) (E-score (-0.5 to 0.5)); higher = stronger / more preferred TF binding; most listed sequences are background and not binding sites
# Conditions: protein concentration: 200 nM; construct: GST-full length
# Procedure, shortened: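 Full-length yeast transcription factors or their DNA-binding domains, GST-tagged and expressed with PURExpress, were applied at about 100-200 nM to universal all-10-mer Agilent arrays. These arrays had been made double-stranded by primer extension on fresh or once-stripped slides. Detection used fluorescent anti-GST, normalisation used masliner, and E-scores for ungapped eight-base words pooled with reverse complements came from the Universal PBM Analysis Suite.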
row,Sequence,PBM E-score
1,AGCATTAC,-0.106
2,AAAGTATC,-0.108
3,ACTGCCGG,-0.00685
4,ATCGCCTC,-0.0199
5,ATAAACCA,0.0471
6,AATCTCCG,0.0695
7,TGCCTGAA,0.141
8,ACTCACAG,0.353
9,CTCCGATC,-0.141
10,CTCGGCCC,-0.206
11,AGGAATAG,0.0464
12,GCTGGAAA,-0.0307
13,GAGGCATA,-0.252
14,CATTTCAA,0.0522
15,CGCGAACG,0.0374
16,AGCTGACC,-0.078
17,AAACGATC,-0.00507
18,GAATAGGC,-0.269
19,CGGCCTCC,-0.281
20,AAGGCCGA,0.0262
21,ACCTACGC,-0.168
22,AGTAACAT,-0.0463
23,AGACGTAG,-0.0718
24,ATGGACGC,-0.174
25,AGGGCACA,-0.184

row,Sequence,PBM E-score
1,GATCCTCA,0.0474
2,GGGATCCC,-0.276
3,ATGCCAGC,-0.325
4,CAGTCTCA,0.269
5,AGCATGAT,0.26
6,ATCTCAAA,0.0471
7,GCGACAAA,-0.0918
8,ACACTGAA,0.122
9,TGTGGCAA,0.111
10,GACTCCAA,0.418
11,CAAGACTA,0.329
12,CATGGGAG,-0.123
13,GATATCAA,-0.031
14,GAACTGCA,-0.0828
15,GCTACAGA,-0.14
16,CCTGACCA,0.00016
17,CGCGGTAG,-0.0407
18,CAGACTTA,0.0931
19,AGATTGAA,0.113
20,AACATACC,0.0383
21,TCTCCGAA,-0.0732
22,TCATACCA,0.21
23,ACAGGATA,-0.158
24,GCGGTAAA,0.0938
25,ACGCTCCA,-0.218

row,Sequence,PBM E-score
1,ATACCTCC,-0.133
2,CCCGCCCG,0.0526
3,ACCTCCCC,-0.0594
4,ATCTGATA,-0.201
5,ATTGTCTA,-0.0194
6,GCAATCGC,-0.105
7,AATGGCTC,0.283
8,CGTAGGCA,-0.321
9,CTAATTGA,0.183
10,CCACAATA,-0.113
11,ATAACAAC,-0.0108
12,ATATTAAC,0.02
13,GCTCGTTA,-0.101
14,CAAACGTC,-0.134
15,CCTAACTC,-0.0235
16,CTCGGACA,-0.146
17,GCATACCC,-0.0393
18,CTCTGCCA,-0.0828
19,ATACAGGG,0.0392
20,CTCTACTA,0.0548
21,CAGTCTCG,0.0971
22,ATACGCGA,-0.0224
23,AATACGAT,0.0537
24,CCGATGCA,-0.21
25,GTTGGCGA,-0.0506

row,Sequence,PBM E-score
1,CCGGATCA,-0.0497
2,CCTGTGCC,-0.235
3,GATAGCGA,-0.0952
4,ATACCGCA,0.0157
5,CTGGTCCA,-0.238
6,AGAAGAAG,-0.21
7,CTCAGGCA,0.122
8,CCAGCTAG,-0.14
9,GCCGCAAC,-0.147
10,ATACAGAG,-0.146
11,ATCAACGC,0.00921
12,GGTGCCCA,-0.198
13,AGTACGTG,-0.00532
14,AAAATCCC,-0.147
15,GCTGACAA,0.00774
16,CTTGCAAC,0.106
17,AAGCCTGA,-0.0685
18,GTACTAGA,0.0831
19,ACTTACAG,0.0708
20,CGCGGTCA,-0.0431
21,ACATCGGG,-0.194
22,GAACCTAC,-0.123
23,ACTTAGTA,0.162
24,GCCCGAAC,-0.288
25,ACTCCGTC,0.162

row,Sequence,PBM E-score
1,AAGTGGGA,0.0265
2,CTCTCGGC,-0.194
3,AGCTAGCC,-0.101
4,CCTCAACC,-0.0921
5,GGAAGGAA,-0.188
6,AGTCCCTC,0.0318
7,AAGGTATG,-0.134
8,ATTCGAGA,0.00617
9,ACTTGTGA,0.235
10,ACCCACCC,0.111
11,CTCCCGCA,-0.13
12,GACATCAA,0.00396
13,GGTAGTAC,0.0103
14,AACACAAG,-0.12
15,AGAAAGCA,0.0508
16,TGAAAACA,-0.0624
17,ATCTATAC,0.178
18,CCACTCCC,-0.172
19,AACACAGC,0.0995
20,CGGCTTGC,-0.134
21,GGTTGGGA,0.00893
22,CAGGCGGC,0.0353
23,CATATCGA,0.145
24,CTCAACAC,0.0907
25,ACACTTAT,-0.107

row,Sequence,PBM E-score
1,CACTTCAG,-0.0132
2,ACCGTACT,-0.0177
3,AATCCTCT,-0.0505
4,ACCGTTGA,0.0201
5,CTGACCCC,-0.221
6,ATCCAGGA,-0.103
7,CACTACGC,-0.197
8,GAGCAAAA,-0.246
9,CAACTGCG,-0.00209
10,CTCCCTCC,-0.146
11,TGACTACA,0.476
12,AACCATAC,0.0411
13,ACATTCGG,-0.0297
14,GAACAGCC,-0.168
15,CAGGTAGG,-0.142
16,AGAGTCAC,0.485
17,ACTAGTAA,0.256
18,CACTTGGA,-0.00507
19,AGGCCCTA,-0.248
20,AGATACTA,0.0696
21,GACTGAAA,0.352
22,AGCCATCA,0.299
23,CGAAAACC,-0.0887
24,AATATTAT,0.0993
25,CGTTAACC,0.0597

row,Sequence,PBM E-score
1,TCTAGGAA,0.106
2,GAGAAAGA,0.107
3,CTAAGTCA,0.449
4,GGTTGGCA,-0.217
5,CATTCGTC,-0.0179
6,AATTCGCC,0.0807
7,ATAGCTGC,0.00331
8,GCGGGCAA,-0.0796
9,CCCGAGAG,-0.217
10,CCCAACTA,-0.119
11,CTACGTGA,0.0339
12,ACTACGTA,0.164
13,ACACCATA,0.0514
14,CCCATCTA,-0.0727
15,ATGATCCA,0.111
16,GCGTTTGA,-0.083
17,AATATTGT,0.0413
18,AGCATATC,-0.158
19,TAACCATA,0.224
20,AATCTAAC,0.0147
21,CTGCCATA,-0.154
22,AGCGCTAC,0.0144
